Experimental data from paper PMC4336329 (PLoS ONE, 2015).
The whole screen tested about 310,000 compounds, of which about 2,200 (0.71%) showed an effect of 50% or more. Effects have a minus sign here. Some of the results follow.

Target: human ether-à-go-go-related gene (hERG) potassium channel (human, UniProt Q12809)
Assay: primary screen, population patch clamp on CHO cells stably expressing hERG

Chain of human ether-à-go-go-related gene (hERG) potassium channel (Q12809 whole entry, looked up): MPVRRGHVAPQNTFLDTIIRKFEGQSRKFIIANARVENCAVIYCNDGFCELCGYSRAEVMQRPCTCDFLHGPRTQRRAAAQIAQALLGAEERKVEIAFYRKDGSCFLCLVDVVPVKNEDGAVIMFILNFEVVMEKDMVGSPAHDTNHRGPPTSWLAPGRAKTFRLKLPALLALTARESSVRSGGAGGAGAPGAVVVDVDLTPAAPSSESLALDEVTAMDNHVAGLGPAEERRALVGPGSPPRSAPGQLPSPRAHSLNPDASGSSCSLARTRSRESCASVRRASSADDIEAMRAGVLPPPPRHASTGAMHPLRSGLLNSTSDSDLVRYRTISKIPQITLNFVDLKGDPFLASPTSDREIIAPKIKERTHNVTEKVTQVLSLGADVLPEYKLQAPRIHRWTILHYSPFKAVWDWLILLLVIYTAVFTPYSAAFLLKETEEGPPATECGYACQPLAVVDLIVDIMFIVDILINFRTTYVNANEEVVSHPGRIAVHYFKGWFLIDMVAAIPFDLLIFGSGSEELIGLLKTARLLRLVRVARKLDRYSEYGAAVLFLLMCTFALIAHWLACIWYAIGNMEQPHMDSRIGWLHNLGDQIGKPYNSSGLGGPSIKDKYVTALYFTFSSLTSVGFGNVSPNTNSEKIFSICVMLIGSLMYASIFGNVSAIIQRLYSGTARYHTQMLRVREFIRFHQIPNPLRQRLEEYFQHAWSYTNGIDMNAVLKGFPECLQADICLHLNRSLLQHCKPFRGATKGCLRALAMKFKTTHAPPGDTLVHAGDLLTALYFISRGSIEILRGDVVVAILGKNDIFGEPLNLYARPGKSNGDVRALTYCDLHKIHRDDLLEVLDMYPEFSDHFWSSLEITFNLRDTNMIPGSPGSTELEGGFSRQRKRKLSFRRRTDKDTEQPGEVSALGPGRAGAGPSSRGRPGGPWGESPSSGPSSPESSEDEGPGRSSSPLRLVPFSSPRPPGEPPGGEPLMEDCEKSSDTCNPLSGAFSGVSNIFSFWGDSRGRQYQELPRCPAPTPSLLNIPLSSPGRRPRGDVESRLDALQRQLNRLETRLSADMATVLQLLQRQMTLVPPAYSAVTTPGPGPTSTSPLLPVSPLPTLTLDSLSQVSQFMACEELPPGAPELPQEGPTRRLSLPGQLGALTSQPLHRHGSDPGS

Row | SMILES | hERG current change (%, negative = inhibition) at 1uM [%]
1 | COc1ccc(C(=O)/C=C/Nc2cc(C)on2)cc1 | 14.1
2 | Cc1ccc2cc(CCNC(=O)c3ccc(S(=O)(=O)N4CCOCC4)cc3)c(=O)[nH]c2c1C | 11.8
3 | Cc1cccc(C)c1NC(=S)NCc1ccncc1 | 16
4 | Cc1ccc(N(Cc2ccccc2)C(=O)c2cccc(S(=O)(=O)N3CC(C)OC(C)C3)c2)cc1 (centres unmarked) | 15.1
5 | O=C(Nc1ccccc1Cl)c1ccc2nsnc2c1 | 5.79
6 | CC(C)/C=C(/C(=O)c1ccc(Cl)cc1Cl)n1cncn1 | 26.7
7 | Cc1cc(-c2ccccc2)n2ncc(C#N)c2n1 | -3.02
8 | COc1ccc(CCNC(=O)CCCc2ccccc2)cc1OC | 12.2
9 | Fc1ccc(NC(=S)NC2CCCCC2)c(F)c1F | 9.08
10 | O=C(c1ccccc1Cc1ccccc1)N1CCN(S(=O)(=O)c2ccccc2F)CC1 | -1.53
11 | COCCNC(=O)C(=O)N/N=C(\C)CC(=O)Nc1cccc(C(F)(F)F)c1 | 15.6
12 | Cn1cc(CN2CCC(C(O)CCc3ccccc3)CC2)c(-c2ccccc2F)n1 (centres unmarked) | -19.4
13 | CCOC(=O)c1c(NC(=O)CN2CCC(C)CC2)sc(C)c1C | 5.26
14 | CN(Cc1ccccc1)c1nc2c(c(=O)[nH]c(=O)n2C)n1CCCc1ccccc1 | 1.82
15 | O=C(NCCCn1ccnc1)c1ccc(Cl)cc1 | 11.4
16 | CCN1CCc2c(sc(N)c2C#N)C1 | 9.27
17 | COc1ccccc1NS(=O)(=O)c1cc(NC(=O)c2cnccn2)ccc1N1CCOCC1 | 9.86
18 | Cc1sc2nc(COC(=O)c3ccc(N4CCCC(C)C4)c([N+](=O)[O-])c3)[nH]c(=O)c2c1C (centres unmarked) | 11.8
19 | CCCCC(=O)NC(NC(=S)N1CCOCC1)C(Cl)(Cl)Cl (centres unmarked) | -8.85
20 | Cl.N=c1n(CCN2CCCCC2)c2ccccc2n1CC(O)COc1ccccc1 (centres unmarked) | -32.7
21 | CCCN(C(=O)C1=COCCO1)c1c(N)n(Cc2ccccc2)c(=O)[nH]c1=O | 17
22 | CCCc1noc(-c2cccc([N+](=O)[O-])c2)n1 | 2.18

Row | SMILES | hERG current change (%, negative = inhibition) at 1uM [%]
23 | CC1CCCCC1NC(=O)c1cc2c(s1)CS(=O)(=O)C2 (centres unmarked) | 6.99
24 | COc1ccc(-c2oc(=O)c3cc(OC)c(OC)cc3c2/C=C/c2cccc([N+](=O)[O-])c2)cc1 | 4.92
25 | CC(=O)Nc1c(O)nc(SCC(=O)Nc2ccc(C(C)=O)cc2)[nH]c1=O | 6.18
26 | COCCNC(=O)Cn1cnc2ccc(S(=O)(=O)N3CCC(C)CC3)cc2c1=O | 0.305
27 | CCn1cc(C(=O)NCC(OC)OC)c(=O)c2cc(S(=O)(=O)N3CCCC3)ccc21 | 13.6
28 | CCOC(=O)C1CCN(C(=O)c2ccccc2CCc2ccccc2)CC1 | 7.02
29 | CC(CNC(=O)CCc1nnc(CCC2CCCCC2)o1)c1ccccc1 (centres unmarked) | 5.97
30 | C#CCNC(=O)C1=C[C@H](c2coc3ccccc3c2=O)C[C@H](OCCCCO)O1 | -13.1
31 | COc1cc(/C=C2\C(=O)ON=C2c2ccccc2)cc(Br)c1O | 14
32 | CNC(=S)NNC(=O)c1cccn(Cc2ccccc2)c1=O | 10
33 | O=C(CNC(=O)C(c1ccccc1)c1ccccc1)OCc1ccccc1 | 1.37
34 | Cn1c(-c2ccccc2)cnc1SCC(=O)NCc1ccco1 | 8.86
35 | CC(C)C(=O)Nc1ccc(NC(=O)c2ccccn2)cn1 | 12.6
36 | O=c1c2ccccc2cnn1Cc1cccc(Br)c1 | 12.2
37 | CC(O)Cc1cn([C@@H](CCCCNC(=O)OC(C)(C)C)C(=O)N2CCN(C(=O)OC(C)(C)C)CC2)nn1 (some centres unmarked) | 12.1
38 | Cc1ccc(C)n1-c1cc(S(=O)(=O)N2CCOCC2)ccc1N1CCCC1 | 15.7
39 | O=S(=O)(c1cccc(S(=O)(=O)N2CCOCC2)c1)N1CCCCCC1 | 15.8
40 | CC1CCC(NC(=O)C2CCN(C(=O)Nc3ccccc3)CC2)CC1 (centres unmarked) | 13.4
41 | COc1ccc2c(c1OC)C(=O)OC2c1c(O)nc(SC)n(-c2ccccc2)c1=O (centres unmarked) | 0.157
42 | CCOC(=O)C1CCN(/C=C2/C(=O)NC(=S)N(c3cccc(OC)c3)C2=O)CC1 | 9.9
43 | O=C(O)CC1c2ccccc2CCN1S(=O)(=O)c1cccs1 (centres unmarked) | 10.7
44 | Nc1[nH]c(N=NC(=O)c2ccc(F)cc2)c2ccccc12 | 7.15

Row | SMILES | hERG current change (%, negative = inhibition) at 1uM [%]
45 | Nc1c(C(=O)N/N=C/c2ccc(Cl)cc2)cnn1-c1ccccc1 | 12
46 | COCC(C)NS(=O)(=O)c1ccc(C(=O)NC(Cc2ccccc2)c2ccccc2)cc1 (centres unmarked) | 6.26
47 | O=C(CSc1nnc(NC2CCCCC2)s1)NN1C(=O)NC2(CCCCC2)C1=O | 8.05
48 | CC1Cc2cc(S(=O)(=O)N3CCN(c4ccccc4F)CC3)ccc2N1C(=O)C1CC1 (centres unmarked) | 21.8
49 | COc1ccc(N(CC(=O)NCCSCc2ccco2)S(=O)(=O)c2ccccc2)cc1OC | 6.77
50 | CC(C)Oc1ccc(S(=O)(=O)N2CCOCC2)cc1NC(=O)C1CCCC1 | 1.02
51 | CC(C)=CCSc1nnc([C@@H](NC(=O)OC(C)(C)C)C(C)C)o1 | 6.21
52 | CC1CCCC(NC(=O)COC(=O)c2cc(S(=O)(=O)N3CCOCC3)ccc2F)C1C (centres unmarked) | 9.78
53 | CC(=O)C(=Cc1cc(C)n(-c2ccccc2)c1C)C(C)=O | 12.6
54 | CC(C)(O)CC[C@@H](O)[C@](C)(O)[C@H]1CC[C@@]2(O)C3=CC(=O)[C@@H]4C[C@@H](O)[C@@H](O)C[C@]4(C)[C@H]3CC[C@]12C | 23.3
55 | COc1ccc(S(=O)(=O)N2CCC(C(=O)N[C@H](C(=O)NCc3ccncc3)C(C)C)CC2)cc1 | 16.9
56 | O=C(CN1CCOCC1)Nc1ccc2c(c1)OC(F)(F)O2 | 8.33
57 | CCCCn1c(N)c(N(CC)C(=O)CCNC(=O)NC23CC4CC(CC(C4)C2)C3)c(=O)[nH]c1=O | 8.66
58 | O=C(Nc1cc2c3c(c1)CC(=O)N3CCC2)c1ccc(Cl)cc1 | -5.37
59 | Cc1c(C(=O)O)sc(S(=O)(=O)N2CCN(C(=O)Cc3ccc(F)cc3)CC2)c1C(=O)O | 6.53
60 | COc1ccc(N2CC(NS(=O)(=O)c3cccnc3)CC2=O)cc1 (centres unmarked) | 19.9
61 | O=S1(=O)C=C(SCCN2CCCC2)c2ccccc21 | 4.33
62 | O=C(c1ccc(F)cc1)c1cnc(Nc2ccccc2)s1 | 18.2
63 | O=c1cc(N2CCCCC2)c(-c2ccccc2)nn1Cc1cccc(F)c1 | -9.67
64 | CCc1ccccc1NC(=O)NCc1ccc2c(c1)OCO2 | 10.6
65 | CCOC(=O)C(=CNc1ccc(C(O)(C(=O)OCC)C(F)(F)F)cc1C)C(=O)OCC (centres unmarked) | -2.89
66 | CC(C)(C)C(=O)Nc1ccc(N2CCN(S(C)(=O)=O)CC2)cc1 | 10.6

Row | SMILES | hERG current change (%, negative = inhibition) at 1uM [%]
67 | Cc1ccc(NC(=O)[C@@H](C)NC(=O)[C@@H]2Cc3ccccc3CN2)cc1 | -2.72
68 | Cc1ccc(N=C2NC(=O)C(CO)(CO)S2)cc1 | 8.61
69 | O=C(/C=C/c1ccc([N+](=O)[O-])s1)N1CCN(c2ccccc2)CC1 | -6.06
70 | CC(=O)NS(=O)(=O)c1ccc(NC(=O)c2ccc(NC(=O)c3cccs3)cc2)cc1 | 7.23
71 | CCCC(=O)NC(Oc1ccccc1Cl)C(Cl)(Cl)Cl (centres unmarked) | 6
72 | Cc1ccc(NS(=O)(=O)c2ccc(Cl)s2)nc1 | 12.6
73 | CC(=O)Cc1nsc(NC(=O)c2cccc(F)c2)n1 | 14.2
74 | O=C(O)CCc1ccc(-c2ccc(Br)cc2)n1Cc1ccco1 | 17.3
75 | Cc1cc(C)nc(NS(=O)(=O)c2ccc(NC(=O)Nc3ccccc3)cc2)n1 | 14.7
76 | CS(=O)(=O)Nc1ccc(C(=O)CC(=O)Nc2ccc([N+](=O)[O-])cc2)cc1 | -24.6
77 | N=C1C(c2nc3ccccc3s2)=C(O)CN1c1ccccc1 | 12.4
78 | O=C(Nc1ccc(F)cc1F)Nc1ccc(F)cc1F | 6.75
79 | O=C(NP(=O)(N1CCCC1)N1CCCC1)C1=C(N2CCOCC2)/C(=C/c2cccc([N+](=O)[O-])c2)CC1 | -0.708
80 | COc1ccc(C(CNC(=O)c2ccc(-c3ccccc3Cl)o2)N2CCOCC2)cc1 (centres unmarked) | -7.11
81 | CC(C)Cc1nc2sc3c(SCC(N)=O)ncnc3c2c2c1CCC2 | 16
82 | COc1cc(C(=O)N2CCN(c3ccc(C)cc3C)CC2)cc(OC)c1OC | 0.739
83 | COc1ccc2c(CCNC(=O)c3ccc([N+](=O)[O-])cc3)c[nH]c2c1 | 12.8
84 | Oc1ccccc1C1=NCCNC(C(F)(F)C(F)F)=C1 | -0.129
85 | Cc1ccc(S(=O)(=O)N/N=C/c2ccc(C(=O)O)cc2)cc1 | 13.7
86 | COc1ccc(C(=O)Nc2c(N)nc(SCC(=O)Nc3ccc(NC(C)=O)cc3)[nH]c2=O)cc1OC | 15.8
